# Source: publication PMC6727748 (Molecular Biology of the Cell, 2019)
# B1: AKAP79ΔLZ–CFP (human AKAP79 lacking its C-terminal 17 residues, fused to CFP) (domain or fragment)
# chain: not shown
# Legend:
# [1] = molecular target: YFP–CaV1.2 (rabbit CaV1.2 with YFP at the N terminus) (rabbit, UniProt P15381 1-2171); assay: FRET or BRET
# [2] = molecular target: CaV1.2–YFP (rabbit CaV1.2 with YFP at the C terminus) (rabbit, UniProt P15381 1-2171); assay: FRET or BRET
binder,measurement,setting,value
B1,apparent FRET efficiency (Eeff),[1],12.8%
same,apparent FRET efficiency (Eeff),[2],4.15%
